# In the supplement of paper PMC8728848:
# This is one part of the list.
# Assays:
# Test in all cases: glycan array binding signal (z-score within array); higher = stronger binding
# Conditions in all cases: glycan notation: IUPAC condensed, linker removed
# [1] = target: Neu5Ac(a2-3)Gal(b1-3)GlcNAc6S
# Outline: (§1)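 Negative Z-scores can be read as non-binding. The Z-score is calculated within each array and then averaged across arrays of one protein sequence at different concentrations or buffers and across linkers. Arrays, 3228 in all, were curated from the Consortium for Functional Glycomics database and kept only where the protein sequence was available.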
# [2] = target: Neu5Ac(a2-3)Gal(b1-3)[Fuc(a1-4)]GlcNAc
# Outline: as §1
# [3] = target: Neu5Ac(a2-3)Gal(b1-3)[Fuc(a1-4)]GlcNAc(b1-3)Gal(b1-3)[Fuc(a1-4)]GlcNAc
# Outline: as §1
# [4] = target: Neu5Ac(a2-3)Gal(b1-3)[Fuc(a1-4)]GlcNAc(b1-3)Gal(b1-4)[Fuc(a1-3)]GlcNAc
# Outline: as §1
# [5] = target: Neu5Ac(a2-3)Gal(b1-3)[GlcNAc(b1-6)]GalNAc
# Outline: as §1
# [6] = target: Neu5Ac(a2-3)Gal(b1-3)[Neu5Ac(a2-6)]GalNAc
# Outline: as §1
# [7] = target: Neu5Ac(a2-3)Gal(b1-3)[Neu5Ac(a2-6)]GlcNAc(b1-3)[Fuc(a1-3)[Gal(b1-4)]GlcNAc(b1-6)]Gal(b1-4)Glc
# Outline: as §1
# [8] = target: Neu5Ac(a2-3)Gal(b1-3)]Neu5Ac(a2-3)Gal(b1-4)]GlcNAc
# Outline: as §1
# [9] = target: Neu5Ac(a2-3)Gal(b1-4)Glc
# Outline: as §1
# [10] = target: Neu5Ac(a2-3)Gal(b1-4)GlcNAc
# Outline: as §1
# [11] = target: Neu5Ac(a2-3)Gal(b1-4)GlcNAc(b1-2)Man
# Outline: as §1
# [12] = target: Neu5Ac(a2-3)Gal(b1-4)GlcNAc(b1-2)Man(a1-3)[GlcNAc(b1-4)][Neu5Ac(a2-3)Gal(b1-4)GlcNAc(b1-2)Man(a1-6)]Man(b1-4)GlcNAc(b1-4)GlcNAc
# Outline: as §1
# [13] = target: Neu5Ac(a2-3)Gal(b1-4)GlcNAc(b1-2)Man(a1-3)[Neu5Ac(a2-3)Gal(b1-4)GlcNAc(b1-2)Man(a1-6)]Man(b1-4)GlcNAc(b1-4)GlcNAc
# Outline: as §1
# [14] = target: Neu5Ac(a2-3)Gal(b1-4)GlcNAc(b1-2)Man(a1-3)[Neu5Ac(a2-3)Gal(b1-4)GlcNAc(b1-2)Man(a1-6)]Man(b1-4)GlcNAc(b1-4)[Fuc(a1-6)]GlcNAc
# Outline: as §1
# [15] = target: Neu5Ac(a2-3)Gal(b1-4)GlcNAc(b1-2)Man(a1-3)[Neu5Ac(a2-6)Gal(b1-4)GlcNAc(b1-2)Man(a1-6)]Man(b1-4)GlcNAc(b1-4)GlcNAc
# Outline: as §1
# [16] = target: Neu5Ac(a2-3)Gal(b1-4)GlcNAc(b1-2)[Neu5Ac(a2-3)Gal(b1-4)GlcNAc(b1-4)]Man(a1-3)[GlcNAc(b1-4)][Neu5Ac(a2-3)Gal(b1-4)GlcNAc(b1-2)[Neu5Ac(a2-3)Gal(b1-4)GlcNAc(b1-6)]Man(a1-6)]Man(b1-4)GlcNAc(b1-4)GlcNAc
# Outline: as §1
# [17] = target: Neu5Ac(a2-3)Gal(b1-4)GlcNAc(b1-2)[Neu5Ac(a2-3)Gal(b1-4)GlcNAc(b1-4)]Man(a1-3)[GlcNAc(b1-4)][Neu5Ac(a2-3)Gal(b1-4)GlcNAc(b1-4)Man(a1-6)]Man(b1-4)GlcNAc(b1-4)GlcNAc
# Outline: as §1
# [18] = target: Neu5Ac(a2-3)Gal(b1-4)GlcNAc(b1-2)[Neu5Ac(a2-3)Gal(b1-4)GlcNAc(b1-6)]Man(a1-6)[Neu5Ac(a2-3)Gal(b1-4)GlcNAc(b1-2)Man(a1-3)][GlcNAc(b1-4)]Man(b1-4)GlcNAc(b1-4)GlcNAc
# Outline: as §1
# [19] = target: Neu5Ac(a2-3)Gal(b1-4)GlcNAc(b1-3)Gal
# Outline: as §1
# [20] = target: Neu5Ac(a2-3)Gal(b1-4)GlcNAc(b1-3)Gal(b1-3)GlcNAc
# Outline: as §1
# [21] = target: Neu5Ac(a2-3)Gal(b1-4)GlcNAc(b1-3)Gal(b1-4)GlcNAc
# Outline: as §1
# [22] = target: Neu5Ac(a2-3)Gal(b1-4)GlcNAc(b1-3)Gal(b1-4)GlcNAc(b1-2)Man(a1-3)[Neu5Ac(a2-3)Gal(b1-4)GlcNAc(b1-3)Gal(b1-4)GlcNAc(b1-2)Man(a1-6)]Man(b1-4)GlcNAc(b1-4)GlcNAc
# Outline: as §1
# [23] = target: Neu5Ac(a2-3)Gal(b1-4)GlcNAc(b1-3)Gal(b1-4)GlcNAc(b1-3)Gal(b1-4)GlcNAc
# Outline: as §1
# [24] = target: Neu5Ac(a2-3)Gal(b1-4)GlcNAc(b1-3)Gal(b1-4)GlcNAc(b1-3)Gal(b1-4)GlcNAc(b1-2)Man(a1-3)[Neu5Ac(a2-3)Gal(b1-4)GlcNAc(b1-3)Gal(b1-4)GlcNAc(b1-3)Gal(b1-4)GlcNAc(b1-2)Man(a1-6)]GalNAc
# Outline: as §1
# [25] = target: Neu5Ac(a2-3)Gal(b1-4)GlcNAc(b1-3)Gal(b1-4)GlcNAc(b1-3)GalNAc
# Outline: as §1
# [26] = target: Neu5Ac(a2-3)Gal(b1-4)GlcNAc(b1-3)Gal(b1-4)GlcNAc(b1-3)[Neu5Ac(a2-3)Gal(b1-4)GlcNAc(b1-3)Gal(b1-4)GlcNAc(b1-6)]GalNAc
# Outline: as §1
# [27] = target: Neu5Ac(a2-3)Gal(b1-4)GlcNAc(b1-3)Gal(b1-4)GlcNAc(b1-6)[Gal(b1-3)]GalNAc
# Outline: as §1
# [28] = target: Neu5Ac(a2-3)Gal(b1-4)GlcNAc(b1-3)Gal(b1-4)[Fuc(a1-3)]GlcNAc
# Outline: as §1
# [29] = target: Neu5Ac(a2-3)Gal(b1-4)GlcNAc(b1-3)GalNAc
# Outline: as §1
# [30] = target: Neu5Ac(a2-3)Gal(b1-4)GlcNAc(b1-3)[Neu5Ac(a2-3)Gal(b1-4)GlcNAc(b1-6)]GalNAc
# Outline: as §1
binder,measurement,setting,value
BT3172pd (Bacteroides thetaiotaomicron) (protein) MLPLRAEHYYYKQISLKEGLPSNVRCILRDEQGFIWIGTKAGLGKFDGHQLKRYKHQANDPHSLLHNLIYQIAEDKQHNIWILTEKGIARYQQQSNNFTFPTDEEGNYITAYSFCLVPDGILFGGKDRIYKYSYKDSSLRLLQYFNANSFKITALSVWDSKTLLCCSRWTGLYLVDLQTGEHRRPPFDCGPEITSMITDSKNRIWIAPYSGGLRCYSRDGKLSASYTTHNSSLSNDIVLSLAEREEQLWIGTDGGGINILHPETGEISQLEYIPGRENYSLPANSILCLHNDYNNNVWAGSTCNGLISIREVSMKTYTDVVPGNDRGLSNGTVRSLYRQSPDSIWIGTDGGGINLFSPHTEKFTHYSSTWGDKVAFISGFTPGKLLISLFSKGVFVFNPATGEKQPFTIIDKETTTRLCNRGKSVNLYQNTPNTVLFLGDHIYQYHLKEKKFSTITEEEGKDIVGTLVPFDHQENLTYINDIKHIYELDDQTSRLKTVFECYTDTVISSVSHDEQGHFWIGSNFGLIHYDPVLKSRTLVPTNLFTEINMVLCDQKGKVWIGVDNMLFAYFIKEQKFVLFGESNGAIQNEYLPNARLVNEQGDAYIGGVKGMLRIDGQLLLNTSEMPELQLLDITINGESANHEWYNHPAKISVPWNSNISIRIMSREEDIFRQKIYRYQIEGLNNEYTESYNPELVIRSLLPGSYRIMASCTAKDGSWIPDQQVLELTVLPPWYRTHHHHHH,glycan array binding signal (z-score),[1],-0.233
same,glycan array binding signal (z-score),[2],-0.042
same,glycan array binding signal (z-score),[3],-0.751
same,glycan array binding signal (z-score),[4],-0.349
same,glycan array binding signal (z-score),[5],-0.406
same,glycan array binding signal (z-score),[6],0.159
same,glycan array binding signal (z-score),[7],0.256
same,glycan array binding signal (z-score),[8],-0.007
same,glycan array binding signal (z-score),[9],4.78
same,glycan array binding signal (z-score),[10],-0.355
same,glycan array binding signal (z-score),[11],0.181
same,glycan array binding signal (z-score),[12],-0.814
same,glycan array binding signal (z-score),[13],0.618
same,glycan array binding signal (z-score),[14],0.157
same,glycan array binding signal (z-score),[15],-0.611
same,glycan array binding signal (z-score),[16],-0.441
same,glycan array binding signal (z-score),[17],-0.247
same,glycan array binding signal (z-score),[18],-0.581
same,glycan array binding signal (z-score),[19],-0.022
same,glycan array binding signal (z-score),[20],-0.565
same,glycan array binding signal (z-score),[21],-0.347
same,glycan array binding signal (z-score),[22],-0.54
same,glycan array binding signal (z-score),[23],-0.599
same,glycan array binding signal (z-score),[24],0.088
same,glycan array binding signal (z-score),[25],-0.253
same,glycan array binding signal (z-score),[26],-0.065
same,glycan array binding signal (z-score),[27],0.094
same,glycan array binding signal (z-score),[28],-0.565
same,glycan array binding signal (z-score),[29],0.355
same,glycan array binding signal (z-score),[30],-0.088
